Test results from article PMC6919601, “Identification of Plasmodium dipeptidyl aminopeptidase allosteric inhibitors by high throughput screening” (PLoS ONE, 2019).
Screen size: about 110,000 compounds; about 230 (0.21%) showed an effect of 50% or more. This is one part of the list.

Target: DPAP1 (Plasmodium falciparum, UniProt Q8IIJ9)
Test: primary screen, percent inhibition; read by cleavage of a fluorogenic dipeptide substrate; higher = more effect of the substance
Parameters: species or system P. falciparum D10 trophozoite lysates; single well
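Further: 30 min substrate incubation versus DMSO and 10 µM JCP410 controls.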

Sequence of DPAP1 (Q8IIJ9 whole entry, looked up): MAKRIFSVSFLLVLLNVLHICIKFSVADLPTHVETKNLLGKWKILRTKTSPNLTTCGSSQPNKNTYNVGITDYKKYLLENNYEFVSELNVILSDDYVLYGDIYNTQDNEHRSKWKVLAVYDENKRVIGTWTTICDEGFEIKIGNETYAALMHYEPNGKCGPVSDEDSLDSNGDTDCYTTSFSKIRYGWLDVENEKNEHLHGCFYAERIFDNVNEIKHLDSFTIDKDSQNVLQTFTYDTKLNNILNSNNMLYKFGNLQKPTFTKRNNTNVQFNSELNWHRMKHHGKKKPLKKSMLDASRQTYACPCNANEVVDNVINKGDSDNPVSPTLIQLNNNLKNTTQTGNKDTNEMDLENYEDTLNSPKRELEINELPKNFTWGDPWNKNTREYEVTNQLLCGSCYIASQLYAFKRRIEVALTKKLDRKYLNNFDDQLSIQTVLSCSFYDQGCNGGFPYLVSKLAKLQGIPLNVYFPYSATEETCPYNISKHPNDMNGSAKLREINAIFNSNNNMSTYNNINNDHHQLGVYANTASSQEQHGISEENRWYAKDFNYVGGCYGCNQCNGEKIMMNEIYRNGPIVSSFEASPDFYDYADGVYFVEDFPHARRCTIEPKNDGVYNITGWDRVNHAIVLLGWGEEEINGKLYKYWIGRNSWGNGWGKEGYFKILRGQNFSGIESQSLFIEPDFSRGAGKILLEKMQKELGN

Row | Structure (SMILES) | % Inhibition @ 10 uM [%]
1 | COc1ccc(Cl)cc1S(=O)(=O)N1CCN(C)CC1 | -1.32
2 | COc1ccc(CN2CCN(CCCc3ccccc3)CC2)c(OC)c1 | -8.57
3 | Cc1c(CNC2CCCC(C)C2C)c(C(=O)O)c(C)n1Cc1ccccc1 (stereo not shown) | -1.92
4 | N#CC1=C(N)Oc2cc(N)ccc2C1c1ccc(-c2ccccc2)cc1 (stereo not shown) | -1.38
5 | CC(C)C[C@H](NC(=O)c1cccc(-c2cncnc2)c1)C(=O)NCC#N | -0.207
6 | COc1ccc(-n2c(C)c3c(C)nnc(C)c3c2C)c(OC)c1 | 3.47
7 | COc1ccc(CNC(=O)c2cnn3c2NC(c2ccccc2)CC3C(F)(F)F)cc1 (stereo not shown) | 2.79
8 | COc1ccccc1C(=O)NC1CCCCCCC1 | -0.349
9 | CCn1c(C(=O)O)c(CNCc2ccc(C)o2)c2ccc(C)cc21 | -5.37
10 | CS(=O)(=O)N(Cc1ccccc1Cl)c1ccc(C(=O)N2CCCCC2)cc1 | 0.755
11 | CC(C)(C)SC[C@H](NC(=O)c1ccccc1)C(=O)NCC#N | 1.35
12 | O=C1c2ccccc2NC(c2ccc(Br)cc2)N1c1ccc(Cl)c(Cl)c1 (stereo not shown) | -5.2
13 | Cc1cccc(-c2cc(C(=O)O)c3c(-c4ccccc4)[nH]nc3n2)c1 | 4.85
14 | CCc1ccc(OCC(=O)Nc2cccc(C(C)=O)c2)c(Br)c1 | -1.92
15 | CCCS(=O)(=O)N1CCC(C(=O)N2CCC(Cc3ccccc3)CC2)CC1 | -0.0542
16 | CCOc1ccccc1C(=O)Nc1sc2c(c1C(N)=O)CCC(C)C2 (stereo not shown) | 1.15
17 | Cn1cnnc1SCC(=O)n1c2ccccc2c2ccccc21 | 1.91
18 | Cc1cccc(NC(=O)C2CCCN(S(=O)(=O)c3c[nH]cn3)C2)n1 (stereo not shown) | -3.7
19 | Cc1ccc(Cc2nn3c(=O)/c(=C/C=C/c4ccccc4)sc3nc2=O)cc1 | 1.23
20 | CC(C)CC(NC(=O)OCc1ccccc1)C(=O)OC1C(C2COC(C)(C)O2)OC2OC(C)(C)OC21 (stereo not shown) | -5.38
21 | Cc1ccc(CNC(=O)CCn2nc(-c3ccccc3)ccc2=O)cc1 | 4.81
22 | CCN1C=CC(=Cc2sc3ccccc3[n+]2CCCS(=O)(=O)O)C=C1 | -8.7

Row | Structure (SMILES) | % Inhibition @ 10 uM [%]
23 | CC(C(=O)Nc1ccc(F)cc1)N1C(=O)c2ccccc2C1=O (stereo not shown) | 7.76
24 | CCOC(=O)N1CCN(c2nc(-c3cccs3)cc(C(F)(F)F)n2)CC1 | -1.31
25 | CCCCN(CC)CCNC(=O)c1cc2c(O)nc3ccccc3c2s1 | -0.499
26 | COCC(=O)n1ncc(-c2ccc(OCc3ccc(Cl)cc3)cc2)c1N | -5.81
27 | Cc1ccc(C(=O)N/C(=C\c2ccc3c(c2)OCO3)C(=O)NC(Cc2ccccc2)C(=O)O)cc1 (stereo not shown) | 3.54
28 | Cc1cc(C)c2nc(-c3cccs3)cc(C(=O)O)c2c1 | 3.69
29 | CCCCN(Cc1ccccc1)C1CCN(CC)CC1 | -0.0953
30 | O=C1C2CCCCC2C(=O)N1c1cccc(Cl)c1Cl (stereo not shown) | -19.9
31 | Cc1[nH]c2ccccc2c1SCCNC(=O)COc1ccc(Cl)cc1Cl | -0.228
32 | O=C(CN1Cc2ccccc2C1=O)NCCc1c[nH]c2ccccc12 | 2.84
33 | Cc1ccc(S(=O)(=O)N2CCC(=O)c3cc(C)ccc32)cc1 | 0.323
34 | CC1CCCC(N2CCC(O)(c3ccc(Br)cc3)CC2)C1 (stereo not shown) | -5.44
35 | CCn1nc(C(=O)Nc2cccc(C(F)(F)F)c2)c(Cl)c1Cl | -7.16
36 | CCOC(=O)c1cnc(SCc2nc(-c3ccc(OC)cc3)oc2C)nc1N | 3.99
37 | CCN(CC)c1nc(Nc2ccc(Cl)cc2)nc(N(CC)CC)n1 | -5.32
38 | CN(CCc1ccccn1)C(=O)c1cc2c(s1)-c1ccccc1OC2 | 11.8
39 | CC1=C(C(=O)OC2CCCC2)C(c2ccsc2)C2=C(O)CC(c3cccs3)CC2=N1 (stereo not shown) | 0.146
40 | Cc1ccccc1C1=N/C(=C\c2cc(Br)cs2)C(=O)O1 | 2.7
41 | CCCNC(=O)c1cnn2c(C)c(Cc3cccc(C)c3)c(C)nc12 | 2.9
42 | COc1cc2c(cc1OC)C1(CCOCC1)CN(CCC(c1ccccc1)c1ccccc1O)C2 (stereo not shown) | 5.48
43 | COc1ccc(-n2cccc2C=C2C(=O)NC(=O)NC2=O)cc1Cl | -1.54
44 | Cc1ccccc1C(=O)Nc1ccc(S(=O)(=O)N2CCc3ccccc32)cc1 | 0.583

Row | Structure (SMILES) | % Inhibition @ 10 uM [%]
45 | O=C1NC(=O)/C(=C\c2ccc(-c3ccc(F)c(Cl)c3)o2)S1 | 4.86
46 | Cc1nnc2c(N3CCN(C)CC3)nc3ccccc3n12 | -1.6
47 | CC(=O)C1=C(C)OC(N)=C(C#N)C1c1cccnc1 (stereo not shown) | 2.85
48 | Cc1ccc(NC(=O)c2c(N)sc3c2CCC3)cc1 | 3.27
49 | Cc1cc(NC(=O)c2c(C)oc3ncn(C)c(=O)c23)no1 | 2.27
50 | O=C(CCc1cn(Cc2ccccc2Cl)c2ccccc12)NCc1ccccn1 | 0.0244
51 | Cc1cccc2c1NC(=O)/C2=C1\SC(Nc2ccc(Cl)cc2)=NC1=O | -6.64
52 | CCOC(=O)c1c(C)nc2c(C#N)cnn2c1C | -4.03
53 | COc1ccc(/C=C2\C(=O)/C(=C/c3ccc(OC)cc3)C3CCC2N3C)cc1 | -2.95
54 | Cc1ccccc1CNC(=O)c1ccc2nc(N3CCCCC3)sc2c1 | 0.0882
55 | COCc1cc(C)nc(SCC(=O)Nc2ccccc2)c1C#N | -1.06
56 | O=C(Nc1sc2c(c1CN1CCN(C(=O)c3ccco3)CC1)CCC2)c1ccc(F)cc1 | 4.03
57 | O=C(O)c1ccc(-n2nnnc2SCC(=O)N2CCOCC2)cc1 | 3.25
58 | CCOC(=O)/C(C#N)=C/c1cccc2ccccc12 | -1.7
59 | CC1=NN(c2cc(Cl)ccc2Cl)C(=O)C1 | -2.25
60 | CC(=O)c1ccc(-n2c(C)ccc2C)cc1 | 3.86
61 | Cc1ccc(C)c(-c2csc(N3N=C(c4ccccc4)CC3c3ccccc3)n2)c1 (stereo not shown) | 2.76
62 | COc1ccc(C(=O)NCC2CCCO2)cc1Br (stereo not shown) | -8.95
63 | Cc1ccc2c(c1)-c1c(cnn1CC(=O)NCCN(C)Cc1ccccc1)CO2 | -0.583
64 | COc1ccc(Cl)cc1C(=O)Nc1ccc(Br)c(C)n1 | 70.4
